Here are results for 88 molecules from paper PMC4336329 (PLoS ONE, 2015).

Among all 310,000 compounds or so, about 14,000 (4.5%) showed an effect of 50% or more. Effects have a minus sign here. The list shows a part of the results.
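Note: peak tail current of the secondary pulse compared with the same well before compound.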

Chain of human ether-à-go-go-related gene (hERG) potassium channel (Q12809 whole entry, looked up): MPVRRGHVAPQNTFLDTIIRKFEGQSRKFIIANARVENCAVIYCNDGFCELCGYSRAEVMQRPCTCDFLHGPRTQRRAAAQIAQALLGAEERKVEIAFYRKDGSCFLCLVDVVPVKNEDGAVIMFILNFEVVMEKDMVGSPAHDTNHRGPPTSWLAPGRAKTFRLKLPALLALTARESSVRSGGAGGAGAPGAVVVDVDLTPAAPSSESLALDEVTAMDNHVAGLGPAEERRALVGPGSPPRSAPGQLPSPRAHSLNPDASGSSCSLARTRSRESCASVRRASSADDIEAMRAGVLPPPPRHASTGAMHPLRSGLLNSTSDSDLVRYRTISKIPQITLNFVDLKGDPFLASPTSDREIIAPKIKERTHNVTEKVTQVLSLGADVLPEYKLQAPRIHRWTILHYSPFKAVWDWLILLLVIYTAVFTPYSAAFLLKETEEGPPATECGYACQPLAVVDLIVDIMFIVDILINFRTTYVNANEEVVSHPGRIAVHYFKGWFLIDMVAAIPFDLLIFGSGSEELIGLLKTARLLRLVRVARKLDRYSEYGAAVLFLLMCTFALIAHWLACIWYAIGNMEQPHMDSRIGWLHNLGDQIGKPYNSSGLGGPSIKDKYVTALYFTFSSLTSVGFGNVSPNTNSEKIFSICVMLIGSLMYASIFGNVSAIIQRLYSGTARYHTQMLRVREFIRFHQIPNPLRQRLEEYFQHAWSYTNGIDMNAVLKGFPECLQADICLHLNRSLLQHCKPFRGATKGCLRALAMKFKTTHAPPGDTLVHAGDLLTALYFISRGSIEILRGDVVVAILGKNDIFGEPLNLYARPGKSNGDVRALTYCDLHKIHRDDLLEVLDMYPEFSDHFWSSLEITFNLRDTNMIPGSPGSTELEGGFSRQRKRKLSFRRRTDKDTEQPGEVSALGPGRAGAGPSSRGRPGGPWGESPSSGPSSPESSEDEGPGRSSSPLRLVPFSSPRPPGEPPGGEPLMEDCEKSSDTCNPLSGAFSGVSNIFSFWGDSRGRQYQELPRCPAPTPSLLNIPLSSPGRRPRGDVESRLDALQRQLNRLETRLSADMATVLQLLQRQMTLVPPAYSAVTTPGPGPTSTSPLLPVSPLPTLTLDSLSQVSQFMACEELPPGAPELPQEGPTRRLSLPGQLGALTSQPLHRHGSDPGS

This experiment concerns the target human ether-à-go-go-related gene (hERG) potassium channel (human, UniProt Q12809). As to the kind of experiment: primary screen, population patch clamp on CHO cells stably expressing hERG.
With `N#CCc1ccc(NC(=O)Nc2cccc3ccccc23)cc1`, the “hERG current change (%, negative = inhibition) at 10uM” value is recorded as 17.6%. With `CCOc1ccc(C(C(=O)NC2CCCC2)N(C(=O)CNC(=O)c2ccco2)c2cccnc2)cc1` (stereo not shown) the figure was 11.6%.

`Brc1ccc(-c2c(-c3ccsc3)sc3ccccc23)cn1`: the “hERG current change (%, negative = inhibition) at 10uM” value is 14.1%.

For the molecule `COc1ccc(S(=O)(=O)NCCN2CCOCC2)cc1[N+](=O)[O-]`, the “hERG current change (%, negative = inhibition) at 10uM” value was found to be 14.9%. For the molecule `O=C(CN1CCN(CC(=O)Nc2ccc3c(c2)OCO3)CC1)Nc1ccc(F)cc1`, the “hERG current change (%, negative = inhibition) at 10uM” value was -73.4%. For `COc1ccccc1NC(=O)c1cc2ccc(O)cc2o/c1=N\O`, the “hERG current change (%, negative = inhibition) at 10uM” value is listed as 2.75%. The figure for `Cc1ccccc1C(=O)NC(CC(C)C)C(=O)OCC(=O)c1c(N)n(C)c(=O)n(C)c1=O` (stereo not shown) is -1.31%; for `CC(C)(CNC(=O)C1CCCC1)CNC(=O)C1CCCC1` it is 13.9%. Consider `Cn1nc(C(C)(C)C)cc1C(=O)Sc1cccc(Br)c1`, for which the “hERG current change (%, negative = inhibition) at 10uM” value is given as 23.9%. The figure for `C=C(C)CSc1nc(N)cc(=O)[nH]1` is -1.7%; for `COc1cccc(CNC(=O)C2CCN(S(=O)(=O)c3ccc4c(c3)CCC(=O)N4)CC2)c1` it is 10.1%; for `CS(=O)(=O)N1CCN(C2C3CC4CC(C3)CC2C4)CC1.O=C(O)C(=O)O` (stereo not shown) it is 26.3%. Regarding `Cc1ccc(NC(=O)CNC(=O)c2ccccc2F)cc1Cl`, the “hERG current change (%, negative = inhibition) at 10uM” value came to 5.9%. The figure for `COc1ccc(N2CCN(C(=N)/C(C(C)=O)=C(\C)O)CC2)cc1` is 24.2%. With `Cc1cccc(C(=O)NNC(=O)c2c(-c3ccccc3Cl)noc2C)c1O` the figure was 2.5%. With `O=C(O)/C=C/c1cn(-c2ccccc2)nc1-c1cccs1` the figure was 14%; with `Cc1cc(-n2nnc3ccccc32)nc2ccccc12`, 14.3%; with `C[C@]12C(=O)N(c3ccccc3)C(=O)N1[C@@H]1c3ccccc3OC[C@@H]1[C@H]2c1ccccc1`, 10.6%. In the case of `Cc1cc(C(=O)OCC(=O)Nc2nc(-c3ccccc3)cs2)c(C)o1`, the “hERG current change (%, negative = inhibition) at 10uM” value was 15.8%. For the molecule `O=C1N(c2ccccc2)C[C@@H]2C[C@@H](c3cccc4c3OCO4)N3CCC[C@@]123`, the “hERG current change (%, negative = inhibition) at 10uM” value is on record as 15.9%. The figure for `Cc1cc(Cl)ccc1NC(=O)CCCN1C(=O)CCC1=O` is 12.5%; for `CCCCn1c(N)c(N(C)C(=O)C2CCCC2)c(=O)[nH]c1=O` it is 15.2%. The figure for `NC(=O)CC(NC(=O)Cc1cccc2ccccc12)c1ccc(N2CCC(Cc3ccccc3)CC2)c([N+](=O)[O-])c1` (stereo not shown) is 8.77%; for `COc1ccc(CSc2nncn2C)cc1F` it is 17.6%; for `CSc1ccc(CNC(=O)C2CCC(=O)N(Cc3cccc(F)c3)C2)cc1` (stereo not shown) it is -62.4%.

Take `Cc1nn(-c2ccccc2)c(N)c1Sc1ccc([N+](=O)[O-])cc1`: the “hERG current change (%, negative = inhibition) at 10uM” value is recorded as -75.2%. The figure for `CCc1nc(Nc2cc(OC)ccc2OC)c2oc3ccccc3c2n1.Cl` is 15%; for `CN(C)S(=O)(=O)c1ccc(N=Cc2c(C(F)(F)F)[nH][nH]c2=O)cc1` it is 23%. With `O=C(c1ccco1)N1CCCN(C(=O)c2ccco2)CC1` the figure was 4.51%. With `CCOC(=O)C1=C(COC(=O)/C=C/c2cccc(Cl)c2)NC(=O)NC1C` (stereo not shown), the “hERG current change (%, negative = inhibition) at 10uM” value worked out at 14.9%. On to `CCN1CCN(C(=O)c2ccccc2N(Cc2ccccc2)S(=O)(=O)c2ccc(OC)cc2)CC1`, for which the “hERG current change (%, negative = inhibition) at 10uM” value was -73.1%.

On to `CCOc1c(CNCCNC(=O)c2nonc2N)cccc1OC.Cl`, for which the “hERG current change (%, negative = inhibition) at 10uM” value was determined as 8.07%. With `O=C(O)C(=O)O.O=[N+]([O-])c1ccc(OCCCCN2CCc3ccccc3C2)cc1` the figure was -76.3%; with `COc1ccc2cc(C3C(C#N)=C(N)OC(C)=C3C(C)=O)c(Cl)nc2c1` (stereo not shown), 4.14%. The figure for `CCn1cc(CN2CCCC(C(=O)c3ccc(-c4ccccc4)c(F)c3)C2)cn1` (stereo not shown) is -57.6%; for `CSc1ccccc1NC(=O)CN1CCCCC1` it is 8.96%.

On to `C/C=C/C=C/C(=O)O`, for which the “hERG current change (%, negative = inhibition) at 10uM” value stood at 15.4%.

For `COc1ccc(-c2oc3ccc(-c4ccc5c(c4)OCO5)cc3c2C#CC2(O)CCCCC2)cc1`, the “hERG current change (%, negative = inhibition) at 10uM” value is on record as 11.4%. The figure for `CCN(CC)c1ccc(-n2cc3c(=O)n(C)c(=O)n(C)c3c2)cc1` is -7.37%; for `CCOc1ccc(OCC)c(S(=O)(=O)NCCCN2CCOCC2)c1` it is 3.09%; for `CCOC(=O)N1CCN(C(=O)c2cc(C)c3c(C)nn(-c4ccccc4)c3n2)CC1` it is -29.5%.

Turning to `O=C1CC(c2ccco2)CC(O)=C1C=NCCN1CCNCC1` (stereo not shown), the “hERG current change (%, negative = inhibition) at 10uM” value was 2.1%. The figure for `COc1cccc(C2(C)NC(=O)N(CC(=O)c3cc(C)n(C4CC4)c3C)C2=O)c1` (stereo not shown) is -35.8%; for `Cc1cc(=O)[nH]c(SCC(=O)Nc2ccc(S(=O)(=O)N3CCOCC3)cc2)n1` it is -3.3%; for `CC(NC=O)c1nc2ccccc2n1CCc1ccccc1` (stereo not shown) it is 5.34%. With `CC(Oc1ccc(S(=O)(=O)N2CCCC2)cc1[N+](=O)[O-])C(=O)N(C)c1ccccc1` (stereo not shown) the figure was -22.4%; with `COC(=O)c1ccccc1NC1OC(=O)c2ccccc21` (stereo not shown), 18.9%. With `CCN(CC)c1ccc(NC(=O)CSc2nc(C3CC3)nc3ccccc23)cc1C`, the “hERG current change (%, negative = inhibition) at 10uM” value is -11.2%. The figure for `NC(=O)C1CCN(c2ncnc3c(-c4ccccc4)nsc23)CC1` is 0.0719%; for `Cc1ccc(N(C(=O)c2csnn2)C(C(=O)NC(C)(C)C)c2cccnc2)cc1` (stereo not shown) it is 6.44%. The figure for `O=C1NC(c2ccc(Br)cc2)=N/C1=C/c1ccco1` is 9.25%; for `C#CCCc1cscc1/C=[N+](\[O-])c1ccc(C(=O)OCC)cc1` it is 11.4%; for `Cc1ccccc1Cn1nnc2c1C(=O)c1ccccc1C2=O` it is -1.21%. The figure for `CC(=O)CS(=O)(=O)c1ccc(Oc2ccc(S(=O)(=O)CC(C)=O)cc2)cc1` is 12.9%; for `O=c1[nH]cnc2c1ncn2[C@@H]1O[C@H](CO)[C@@H](O)[C@H]1O` it is 12.5%. As for `Cc1ccc(-n2c(C)nc3c(cnn3-c3ccc(C)c(C)c3)c2=O)cc1C`, the “hERG current change (%, negative = inhibition) at 10uM” value came out at 12.3%. With `CCOc1cccc(CN(CC)CC2CCCN(CCc3cccc(OC)c3)C2)c1O` (stereo not shown), the “hERG current change (%, negative = inhibition) at 10uM” value is recorded as -66.7%.

In the case of `COc1ccc(/C=C2/C(=O)N(c3ccccc3)N=C2C)c(OC)c1`, the “hERG current change (%, negative = inhibition) at 10uM” value came to 5.11%. In the case of `Cc1nn(CC(=O)NNC(=O)c2cccc(Br)c2)c(C)c1[N+](=O)[O-]`, the “hERG current change (%, negative = inhibition) at 10uM” value is recorded as -8.92%. The figure for `CN(CCc1ccccc1)C(=O)c1cc(COc2ccc(F)cc2Cl)on1` is 15.6%. The figure for `O=C(Cc1ccc(Cl)cc1)Nc1ccc(C(=O)N2CCOCC2)cc1` is -1.78%; for `Cc1cc(NC(=O)COc2coc(CN3CCN(c4ccccc4F)CC3)cc2=O)no1` it is 4.78%. The figure for `O=C(N/N=C/c1cc(Br)cs1)c1ccccc1[N+](=O)[O-]` is 12.3%; for `Cc1ccccc1-c1nc(CS(=O)(=O)CC(=O)NCCc2ccccc2)c(C)o1` it is 1.61%. Consider `Cc1n[nH]c(C)c1CCCOc1ccccc1`, for which the “hERG current change (%, negative = inhibition) at 10uM” value was found to be 4.06%. As to `c1ccc(C2Nc3ccccc3Oc3ccccc32)cc1` (stereo not shown), the “hERG current change (%, negative = inhibition) at 10uM” value is recorded as 7.7%. The figure for `O=C(Nc1ccc2c(c1)OCCO2)C1CCCN(S(=O)(=O)c2cccnc2)C1` (stereo not shown) is 6%; for `O=C(NCCS(=O)(=O)N1CCN(c2ccc(F)cc2)CC1)c1ccc(Br)o1` it is -60.1%; for `COCCCNC(=S)NNC(=O)c1cccnc1` it is 22.3%. For `CCCOc1ccc(C2=CSC3=NCCN23)cc1[N+](=O)[O-]`, the “hERG current change (%, negative = inhibition) at 10uM” value is given as -73.6%. With `c1csc(CNc2nc3ccccc3n2CCN2CCOCC2)c1` the figure was -28%; with `CC1(C)CC2(CCO1)N1CC3(C)CN2CC(C)(C1)C3O` (stereo not shown), 17.9%; with `COc1ccc(N(C(=O)c2ccco2)C(C(=O)NC2CCCC2)c2ccccc2)cc1` (stereo not shown), -7.75%.

`O=C(c1cccc2ccccc12)C1CCCN(C(=O)C2CCOCC2)C1` (stereo not shown): the “hERG current change (%, negative = inhibition) at 10uM” value is -1.78%. Turning to `CN(C)c1ccc([N+](=O)[O-])cc1C(=O)O`, the “hERG current change (%, negative = inhibition) at 10uM” value was -2.83%. Consider `Cc1c(C(=O)N(C)CCOc2ccccc2)oc2c(Cl)cccc12`, for which the “hERG current change (%, negative = inhibition) at 10uM” value is recorded as -10.6%. The figure for `CCc1nnc(NC(=O)C2CCCN2C(=O)Nc2ccccc2)s1` (stereo not shown) is 15.8%. With `Cc1ccc2c(c1)/C(=C/c1ccco1)C(=O)N2` the figure was 6.8%. The figure for `Cc1nn(C)c(C(=O)NNC(=S)Nc2ccc(Cl)cc2)c1[N+](=O)[O-]` is 18.7%; for `O=c1c(-c2ccc(Br)cc2)[n+]([O-])c2ccccc2n1OCc1ccccc1` it is -10.2%; for `COc1ccc(S(=O)(=O)N2CCCC2C(=O)Nc2ccc(C(C)=O)cc2)cc1` (stereo not shown) it is -13.5%. As for `COC(=O)c1cc(=O)nc2sc(-c3cccs3)nn12`, the “hERG current change (%, negative = inhibition) at 10uM” value is 3.54%. The figure for `CCOc1cc(-c2nc(-c3ccccc3)c(-c3cc([N+](=O)[O-])ccc3C)[nH]2)ccc1O` is 3.59%; for `Cc1ccc(C(=O)NCCc2cccs2)cc1` it is 7.84%. The figure for `CCS(=O)(=O)N1CCN(c2ccc(C(=O)N3CCOCC3)cc2[N+](=O)[O-])CC1` is -4.74%; for `CCN(CC)S(=O)(=O)c1cccc(S(=O)(=O)c2cccc(S(=O)(=O)N(CC)CC)c2)c1` it is -13%; for `NS(=O)(=O)c1cccc(NC(=O)CSc2nnc(C3CC3)n2C2CC2)c1` it is 8.95%. With `O=C(CCNC(=O)c1ccccc1)N=Nc1c(O)[nH]c2ccccc12`, the “hERG current change (%, negative = inhibition) at 10uM” value is given as 10.7%.
